Source: PubChem BioAssay
Inconclusive means that the source gave no clear call. Such entries were picked first, then a sample of the others. The source made the active and inactive calls.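 The calls were made as follows, unless noted: active = thallium flux slope more than 3 SD above or below the plate's solvent-only control mean, mostly below; inconclusive = the two repeat wells disagreed; inactive = no significant shift from solvent-only controls.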

target: Solute carrier family 12 member 5 (Homo sapiens) (UniProt Q9H2X9); test: retest of KCC2 transport modulation, ouabain-free – cell-based, HEK293 KCC2, thallium flux, FluoZin2, secondary assay 2, confirmation (AID 1715); conditions: HEK293-KCC2, thallium flux FluoZin2 fluorescence; at 10 µM; actives lie on both sides; F/F0 rise rate, 10–20 s post-thallium;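 also: raw slope with 0.1% DMSO as baseline and bumetanide as block control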
Sequence of UniProt Q9H2X9 (Q9H2X9 whole entry, looked up): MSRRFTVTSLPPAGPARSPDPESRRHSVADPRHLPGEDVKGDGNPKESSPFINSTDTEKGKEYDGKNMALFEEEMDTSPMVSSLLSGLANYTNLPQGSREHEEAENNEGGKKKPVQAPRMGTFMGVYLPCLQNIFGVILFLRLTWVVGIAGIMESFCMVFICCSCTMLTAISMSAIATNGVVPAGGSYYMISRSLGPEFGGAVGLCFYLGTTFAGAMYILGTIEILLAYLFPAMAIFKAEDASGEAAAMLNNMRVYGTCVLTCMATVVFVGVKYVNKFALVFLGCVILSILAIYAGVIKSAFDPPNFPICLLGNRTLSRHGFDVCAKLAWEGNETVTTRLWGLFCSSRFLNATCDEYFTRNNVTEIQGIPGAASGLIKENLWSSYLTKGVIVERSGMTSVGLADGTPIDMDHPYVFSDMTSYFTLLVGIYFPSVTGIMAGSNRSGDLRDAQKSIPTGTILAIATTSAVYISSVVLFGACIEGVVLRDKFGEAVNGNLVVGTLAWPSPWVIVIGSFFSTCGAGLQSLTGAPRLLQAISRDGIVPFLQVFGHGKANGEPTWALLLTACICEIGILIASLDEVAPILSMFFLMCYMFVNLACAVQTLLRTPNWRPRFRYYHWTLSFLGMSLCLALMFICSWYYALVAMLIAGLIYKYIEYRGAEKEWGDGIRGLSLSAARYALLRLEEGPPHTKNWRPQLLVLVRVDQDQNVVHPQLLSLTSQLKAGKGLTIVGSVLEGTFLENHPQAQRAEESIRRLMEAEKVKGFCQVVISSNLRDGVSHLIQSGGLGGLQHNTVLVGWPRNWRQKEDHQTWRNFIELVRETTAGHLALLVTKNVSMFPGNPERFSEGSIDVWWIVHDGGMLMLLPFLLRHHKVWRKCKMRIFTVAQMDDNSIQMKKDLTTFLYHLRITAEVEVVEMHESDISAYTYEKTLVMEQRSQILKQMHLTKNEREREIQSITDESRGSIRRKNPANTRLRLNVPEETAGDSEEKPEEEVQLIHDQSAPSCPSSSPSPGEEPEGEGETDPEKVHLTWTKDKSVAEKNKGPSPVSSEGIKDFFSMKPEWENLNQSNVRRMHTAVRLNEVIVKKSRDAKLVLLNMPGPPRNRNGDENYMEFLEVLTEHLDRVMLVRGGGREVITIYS

| SMILES | normalized thallium flux |
| --- | --- |
| Fc1ccc(NC(=S)Nc2nccs2)cc1 | inconclusive: 0.0406 |
| Cc1cc(NC(=O)c2cccc(S(=O)(=O)N3CC(c4ccccc4)CC3=O)c2)no1 (stereo unspecified) | active: 0.0218 |
| COc1cccc(NC(=S)N/N=C2\CC3CCC2(C)C3(C)C)c1 (stereo unspecified) | inconclusive: 0.0394 |
| COc1ccc(NC(=S)N/C(=N/S(=O)(=O)c2ccc(C)cc2)c2ccccc2)cc1 | inactive: 0.0321 |
| O=C1COc2ccc(C(=O)CSc3nc4ccccc4c(=O)n3-c3ccc(Cl)c(Cl)c3)cc2N1 | inactive: 0.0327 |
| O=C(Cc1coc(-c2ccc(F)cc2)n1)Nc1ccccc1 | inconclusive: 0.0283 |
| CCc1ccc(S(=O)(=O)NC(=S)NC2CCCCC2)cc1 | inconclusive: 0.0382 |
| O=C1OCCC1Sc1nc2ccccc2c(=O)n1Cc1ccc(F)cc1 (stereo unspecified) | inconclusive: 0.0411 |
| CC(=O)c1c(N2CCOCC2)[nH]c(-c2ccccc2)nc1=S | inconclusive: 0.0393 |
| O=C(CSc1nnc(Cc2ccccc2)o1)N1CCCc2ccccc21 | active: 0.021 |
| Fc1ccc(NC(=S)Nc2cc(Cl)ccc2Cl)cc1 | inconclusive: 0.0366 |
| Cc1ccc(C(=O)NC(=S)Nc2ccccc2C)cc1 | active: 0.0421 |
| CCOc1cccc2sc(NC(=O)c3ccc(Br)s3)nc12 | active: 0.0489 |
| CCOC(=O)N1CCN(C(=S)NC(=O)c2c(-c3c(Cl)cccc3Cl)noc2C)CC1 | inconclusive: 0.0358 |
| CCCN1C(=O)/C(=C/c2ccc(C)o2)NC1=S | inconclusive: 0.0393 |
| S=c1[nH]nc(C2CCCCC2)n1/N=C/c1cccs1 | inactive: 0.0328 |
| Cc1sc2nc(C3CC3)nc(SCC(=O)N3CCCc4ccccc43)c2c1C | inactive: 0.0316 |
| O=C(O)c1cccc(NC(=S)NC(=O)c2ccc(-c3ccccc3)cc2)c1 | active: 0.022 |

| SMILES | normalized thallium flux |
| --- | --- |
| Nn1c(COc2ccc(Cl)cc2)n[nH]c1=S | inconclusive: 0.0263 |
| COc1ccc(C(=O)NC(=S)NNC(=O)COc2ccccc2)cc1 | inconclusive: 0.0381 |
| c1ccc(CSC2=NNC(c3ccccn3)S2)cc1 (stereo unspecified) | inconclusive: 0.0365 |
| N#Cc1c(-c2ccccc2)nc(SCc2nc(N)nc(N3CCCCC3)n2)[nH]c1=O | active: 0.0248 |
| O=S(=O)(NCc1csc(-c2ccccc2)n1)c1ccc(Cl)s1 | active: 0.0221 |
| CCn1c(SCC(=O)N2CCN(c3ccccc3)CC2)nc2c(c1=O)SC(C)C2 (stereo unspecified) | inconclusive: 0.0254 |
| N#Cc1nc(Cc2cccc3ccccc23)oc1NCC1CCCO1 (stereo unspecified) | inconclusive: 0.0294 |
| Cc1[nH]c(=S)sc1Cc1ccc(Cl)c(Cl)c1 | inconclusive: 0.029 |
| O=C(Cn1cnc2c(nnn2Cc2ccc(F)cc2)c1=O)N1CCN(c2ccccc2)CC1 | active: 0.0237 |
| COc1ccc(-c2cc(C)nc(SCc3cccc(C(=O)O)c3)n2)cc1 | inactive: 0.0342 |
| CCOC(=O)SC1=N/C(=C\c2ccc(N(C)C)cc2)C(=O)S1 | inactive: 0.0295 |
| O=C(Nc1nnc(C2=COCCO2)o1)c1ccc(Cc2ccccc2)cc1 | inactive: 0.0311 |
| Clc1c(Cl)c(Cl)c2n[nH]nc2c1Cl | inconclusive: 0.0272 |
| O=C(NC(=S)Nc1ccccc1N1CCCCC1)c1cccs1 | inactive: 0.0345 |
| O=C(COc1ccc([N+](=O)[O-])cc1)NNC(=S)NC(=O)c1ccc(Br)cc1 | inactive: 0.0299 |
| Cc1[nH]n(-c2ccccc2)c(=O)c1N=Nc1ccccc1C(=O)N1CCCCC1 | inactive: 0.03 |
| CCc1nn(C(C)C(=O)N2CCc3ccccc3C2)c(=O)c2cc3occc3n12 (stereo unspecified) | active: 0.0222 |
| Cc1ccccc1OCC(=O)N=Nc1c(O)n(C)c2ccccc12 | inactive: 0.035 |

test system: not listed separately; test: compound effects on native HEK Tl+ uptake – HEK cells, counterscreen 1, counter-screen for KCC2 modulator project, confirmation (AID 1716;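 active = thallium flux rate significantly above the same plate's solvent-only control wells, beyond their mean plus 3 SD; inconclusive = the two replicate wells gave conflicting results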); conditions: HEK293 parental cells, thallium flux FluoZin2, ouabain; at 10 µM; baseline-ratio fluorescence slope, 10–20 s after thallium

| SMILES | thallium flux rate (normalised fluorescence) |
| --- | --- |
| C/C(Cl)=C\Cn1c(O)c(N=NC(N)=S)c2ccccc21 | active: 0.0473 |
| S=c1[nH]c(-c2ccccc2)cn1/N=C/c1ccccc1Br | active: 0.0671 |
| O=C(NC(=S)Nc1ccc2c(c1)OCO2)c1ccc(Cl)cc1 | inconclusive: 0.0087 |

target: Solute carrier family 12 member 5 (Homo sapiens) (UniProt Q9H2X9); test: modulation of KCC2 thallium flux in HEK cells – cell-based, ouabain, retest, confirmation (AID 1717;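 active = thallium flux slope beyond 3 SD from same-plate DMSO control mean in most replicates, usually higher, sometimes lower; inconclusive = repeat tests gave conflicting results; inactive = no significant difference from controls in most replicates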;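 also: slope of initial-normalized fluorescence between seconds 10 and 20 after thallium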); conditions: HEK293-KCC2, thallium flux FluoZin2 fluorescence, at 10 µM, bidirectional: low = inhibitor, high = activator

| SMILES | raw Tl+ flux slope (below DMSO = inhibition, above = activation) |
| --- | --- |
| O=C1COc2ccc(C(=O)CSc3nc4ccccc4c(=O)n3-c3ccc(Cl)c(Cl)c3)cc2N1 | inactive: 0.0227 |
| CCc1ccc(S(=O)(=O)NC(=S)NC2CCCCC2)cc1 | active: 0.0599 |
| CCOC(=O)N1CCN(C(=S)NC(=O)c2c(-c3c(Cl)cccc3Cl)noc2C)CC1 | active: 0.0316 |
| S=c1[nH]nc(C2CCCCC2)n1/N=C/c1cccs1 | inconclusive: 0.0318 |
| Cc1sc2nc(C3CC3)nc(SCC(=O)N3CCCc4ccccc43)c2c1C | inconclusive: 0.0299 |
| N#Cc1nc(Cc2cccc3ccccc23)oc1NCC1CCCO1 (stereo unspecified) | active: 0.0157 |
| O=C(Cn1cnc2c(nnn2Cc2ccc(F)cc2)c1=O)N1CCN(c2ccccc2)CC1 | inconclusive: 0.0169 |
| COc1ccc(-c2cc(C)nc(SCc3cccc(C(=O)O)c3)n2)cc1 | inactive: 0.0231 |
| O=C(Nc1nnc(C2=COCCO2)o1)c1ccc(Cc2ccccc2)cc1 | inconclusive: 0.0238 |
| O=C(NC(=S)Nc1ccccc1N1CCCCC1)c1cccs1 | active: 0.0425 |
| O=C(COc1ccc([N+](=O)[O-])cc1)NNC(=S)NC(=O)c1ccc(Br)cc1 | active: 0.0271 |
| CCc1nn(C(C)C(=O)N2CCc3ccccc3C2)c(=O)c2cc3occc3n12 (stereo unspecified) | active: 0.0122 |
